Drawing on publication PMC12820563, “FoxP3 forms a head-to-head dimer in vivo and stabilizes its multimerization on adjacent microsatellites”, this text covers binding signal for 31 sequences.

The list shows a part of the results.

This assay concerns the target T1, MBP-FoxP1dN (Mus musculus, UniProt P58462 326-579).
T1 sequence: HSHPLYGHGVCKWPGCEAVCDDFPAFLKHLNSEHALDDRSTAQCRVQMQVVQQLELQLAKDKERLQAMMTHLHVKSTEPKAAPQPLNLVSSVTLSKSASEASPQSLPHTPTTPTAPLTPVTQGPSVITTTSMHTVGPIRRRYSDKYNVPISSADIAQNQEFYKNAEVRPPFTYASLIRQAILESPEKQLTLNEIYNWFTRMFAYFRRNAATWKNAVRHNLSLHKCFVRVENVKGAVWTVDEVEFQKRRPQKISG
As to the kind of experiment: PD-seq (MBP pull-down with sequencing); 20 mM Tris-HCl pH 7.5, 100 mM NaCl, 1.5 mM MgCl2, 0.4 uM protein, 0.1 uM dsDNA library, 30 min, room temperature, amylose pull-down; high values mean tight binding. Particulars: protein: recombinant; tags: His6-MBP; chain copies: 2; dsDNA, one strand shown. In short, it runs like this:
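Binding is reads-per-million enrichment of pull-down over input, with replicates pooled. It comes from 30 min room-temperature incubation in Tris pH 7.5 buffer with NaCl and MgCl2 of 0.4 µM His6-MBP-tagged, N-terminally truncated mouse FoxP3 or FoxP1 fragment from E. coli with 0.1 µM Klenow-filled degenerate double-stranded DNA library, followed by amylose resin capture, three washes and Illumina sequencing of the released DNA.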
On to “GATGATTGTTCTCCCAGCTGATGAATTTAGAGGATCGAGTAAACAAATTTTCCTAATCTTTCTGTTCAAGCGCCATCTAC”, for which the binding signal was 0.884 RPM ratio (pull-down/input).

As for “GATGATTGTTCTCCCAGCTGATGAATTTGTAACTTCGAGTAAACAAATTTTCCTAATCTTTCTGTTCAAGCGCCATCTAC”, the binding signal is 1.15 RPM ratio (pull-down/input).

Turning to “GATGATTGTTCTCCCAGCTGATGAATTCACACAATCGAGTAAACAAATTTTCCTAATCTTTCTGTTCAAGCGCCATCTAC”, the binding signal is 1.35 RPM ratio (pull-down/input).

Turning to “GATGATTGTTCTCCCAGCTGATGAATTCTAAGATTCGAGTAAACAAATTTTCCTAATCTTTCTGTTCAAGCGCCATCTAC”, the binding signal was 0.843 RPM ratio (pull-down/input).

As to “GATGATTGTTCTCCCAGCTGATGAATTGTGACCGTCGAGTAAACAAATTTTCCTAATCTTTCTGTTCAAGCGCCATCTAC”, the binding signal is 0.982 RPM ratio (pull-down/input).

As to “GATGATTGTTCTCCCAGCTGATGAATTGTGGTAATCGAGTAAACAAATTTTCCTAATCTTTCTGTTCAAGCGCCATCTAC”, the binding signal is 1.58 RPM ratio (pull-down/input).

Take “GATGATTGTTCTCCCAGCTGATGAATTTTGCGTGTCGAGTAAACAAATTTTCCTAATCTTTCTGTTCAAGCGCCATCTAC”: the binding signal is 0.967 RPM ratio (pull-down/input).

“GATGATTGTTCTCCCAGCTGATGAATTACGATTTTCGAGTAAACAAATTTTCCTAATCTTTCTGTTCAAGCGCCATCTAC”: the binding signal is 1.11 RPM ratio (pull-down/input).

For “GATGATTGTTCTCCCAGCTGATGAATTGGATGTGTCGAGTAAACAAATTTTCCTAATCTTTCTGTTCAAGCGCCATCTAC”, the binding signal was 0.931 RPM ratio (pull-down/input).

Take “GATGATTGTTCTCCCAGCTGATGAATTATGCGGCTCGAGTAAACAAATTTTCCTAATCTTTCTGTTCAAGCGCCATCTAC”: the binding signal is 0.914 RPM ratio (pull-down/input).

For “GATGATTGTTCTCCCAGCTGATGAATTGCAACGATCGAGTAAACAAATTTTCCTAATCTTTCTGTTCAAGCGCCATCTAC”, the binding signal is 1.2 RPM ratio (pull-down/input).

Turning to “GATGATTGTTCTCCCAGCTGATGAATTCTGTAGGTCGAGTAAACAAATTTTCCTAATCTTTCTGTTCAAGCGCCATCTAC”, the binding signal is 0.84 RPM ratio (pull-down/input).

For “GATGATTGTTCTCCCAGCTGATGAATTACTACGTTCGAGTAAACAAATTTTCCTAATCTTTCTGTTCAAGCGCCATCTAC”, the binding signal is 1.15 RPM ratio (pull-down/input).

As for “GATGATTGTTCTCCCAGCTGATGAATTTGAGACCTCGAGTAAACAAATTTTCCTAATCTTTCTGTTCAAGCGCCATCTAC”, the binding signal was 0.757 RPM ratio (pull-down/input).

“GATGATTGTTCTCCCAGCTGATGAATTAGGGATATCGAGTAAACAAATTTTCCTAATCTTTCTGTTCAAGCGCCATCTAC”: the binding signal was 0.862 RPM ratio (pull-down/input).

Turning to “GATGATTGTTCTCCCAGCTGATGAATTGGGTAGTTCGAGTAAACAAATTTTCCTAATCTTTCTGTTCAAGCGCCATCTAC”, the binding signal was 0.859 RPM ratio (pull-down/input).

With “GATGATTGTTCTCCCAGCTGATGAATTAAGCTGATCGAGTAAACAAATTTTCCTAATCTTTCTGTTCAAGCGCCATCTAC”, the binding signal is 0.849 RPM ratio (pull-down/input).

As to “GATGATTGTTCTCCCAGCTGATGAATTCTACCACTCGAGTAAACAAATTTTCCTAATCTTTCTGTTCAAGCGCCATCTAC”, the binding signal is 0.884 RPM ratio (pull-down/input).

For the sequence “GATGATTGTTCTCCCAGCTGATGAATTAAACAGATCGAGTAAACAAATTTTCCTAATCTTTCTGTTCAAGCGCCATCTAC”, the binding signal is 1.27 RPM ratio (pull-down/input).

Regarding “GATGATTGTTCTCCCAGCTGATGAATTAGGCATATCGAGTAAACAAATTTTCCTAATCTTTCTGTTCAAGCGCCATCTAC”, the binding signal was 0.996 RPM ratio (pull-down/input).

For “GATGATTGTTCTCCCAGCTGATGAATTGCTAACCTCGAGTAAACAAATTTTCCTAATCTTTCTGTTCAAGCGCCATCTAC”, the binding signal was 1.06 RPM ratio (pull-down/input).

On to “GATGATTGTTCTCCCAGCTGATGAATTTAAATAGTCGAGTAAACAAATTTTCCTAATCTTTCTGTTCAAGCGCCATCTAC”, for which the binding signal is 0.966 RPM ratio (pull-down/input).

“GATGATTGTTCTCCCAGCTGATGAATTTGACTCATCGAGTAAACAAATTTTCCTAATCTTTCTGTTCAAGCGCCATCTAC”: the binding signal was 0.878 RPM ratio (pull-down/input).

On to “GATGATTGTTCTCCCAGCTGATGAATTGCGAGTCTCGAGTAAACAAATTTTCCTAATCTTTCTGTTCAAGCGCCATCTAC”, for which the binding signal was 0.957 RPM ratio (pull-down/input).

“GATGATTGTTCTCCCAGCTGATGAATTAATAGACTCGAGTAAACAAATTTTCCTAATCTTTCTGTTCAAGCGCCATCTAC”: the binding signal was 0.876 RPM ratio (pull-down/input).

For the sequence “GATGATTGTTCTCCCAGCTGATGAATTCACGGAATCGAGTAAACAAATTTTCCTAATCTTTCTGTTCAAGCGCCATCTAC”, the binding signal is 0.964 RPM ratio (pull-down/input).

For “GATGATTGTTCTCCCAGCTGATGAATTGAGACCTTCGAGTAAACAAATTTTCCTAATCTTTCTGTTCAAGCGCCATCTAC”, the binding signal was 0.859 RPM ratio (pull-down/input).

Consider “GATGATTGTTCTCCCAGCTGATGAATTTGACTAATCGAGTAAACAAATTTTCCTAATCTTTCTGTTCAAGCGCCATCTAC”, for which the binding signal was 0.952 RPM ratio (pull-down/input).

With “GATGATTGTTCTCCCAGCTGATGAATTTTTACGGTCGAGTAAACAAATTTTCCTAATCTTTCTGTTCAAGCGCCATCTAC”, the binding signal is 0.896 RPM ratio (pull-down/input).

With “GATGATTGTTCTCCCAGCTGATGAATTATAGGTTTCGAGTAAACAAATTTTCCTAATCTTTCTGTTCAAGCGCCATCTAC”, the binding signal was 0.92 RPM ratio (pull-down/input).

Turning to “GATGATTGTTCTCCCAGCTGATGAATTCGTGATCTCGAGTAAACAAATTTTCCTAATCTTTCTGTTCAAGCGCCATCTAC”, the binding signal was 0.884 RPM ratio (pull-down/input).
